This passage reports pest or weed control results from US6706740B2, “Fungicidal heterocyclic aromatic amides and their compositions, methods of use and preparation” (Dow AgroSciences LLC, priority 1999, dated 2004).

Molecules are shown by their SMILES.

One assay deals with Plasmopara viticola—PLASVI. Description: whole plant or invertebrate. It is filed as in vivo. The following applies: Plasmopara, 24 h, read-out: PLASVI in vivo 1 Day Protectant, 100 ppm, 24 hour protectant, grape; control of fungal infection vs untreated plants.
Regarding `Cc1ccnc(C(=O)Nc2ccc(Oc3cccc(C(F)(F)F)c3)cc2)c1O` [Compound 238], the pest or weed control at 100 ppm was less than 25%.
As for `COc1ccnc(C(=O)NC2C(=O)c3ccc(-c4ccco4)cc3OC2C)c1O` (stereo not drawn) [Compound 323], the pest or weed control at 100 ppm is less than 25%.
In the case of `COc1ccnc(C(=O)NC2C[C@H](C)O[C@](C)(Cc3ccccc3)C2)c1O` (stereo partly drawn) [Compound 313], the pest or weed control at 100 ppm was less than 25%.
On to `COc1ccnc(C(=O)NC2CCc3ccccc3C2=O)c1O` (stereo not drawn) [Compound 285], for which the pest or weed control at 100 ppm is less than 25%.
For `COc1ccnc(C(=O)N[C@H]2CC3CC2C[C@@H]3COCc2cccc(C(F)(F)F)c2)c1O` (stereo partly drawn) [Compound 296], the pest or weed control at 100 ppm was less than 25%.
In the case of `O=C(NCc1ccc(Cl)c(Cl)c1)c1ncccc1O` [Compound 221], the pest or weed control at 100 ppm is less than 25%.
In the case of `COc1ccnc(C(=O)NCCCc2cccnc2)c1O` [Compound 243], the pest or weed control at 100 ppm is less than 25%.
For the compound `COc1ccnc(C(=O)NC2CCN(C(=O)CCc3ccccc3)CC2)c1O` [Compound 309], the pest or weed control at 100 ppm was less than 25%.
For the compound `Cc1cccc(CNC(=O)c2ncccc2O)c1` [Compound 222], the pest or weed control at 100 ppm was less than 25%.
For the compound `COc1ccnc(C(=O)NC2CCC[C@H]3CC(CCC=C(C)C)=CC[C@@H]23)c1O` (stereo partly drawn) [Compound 286], the pest or weed control at 100 ppm was 25 to 74%.
Take `C[C@@H](NC(=O)c1ncccc1O)c1cccc2ccccc12` [Compound 231]: the pest or weed control at 100 ppm is 25 to 74%.
As to `COc1ccnc(C(=O)NC2C[C@H](C)C[C@H](c3ccccn3)C2)c1O` (stereo partly drawn) [Compound 259], the pest or weed control at 100 ppm is 25 to 74%.
With `COc1ccnc(C(=O)NC2CCC(Sc3ccccc3)CC2)c1O` (stereo not drawn) [Compound 275], the pest or weed control at 100 ppm was less than 25%.
As to `COc1ccnc(C(=O)NC2CC(C)(C)C=CC=C2C)c1O` (stereo not drawn) [Compound 278], the pest or weed control at 100 ppm lay in the range of 25 to 74%.

The assay is the same for the next values; noted with them: Plasmopara, 24 h, read-out: PLASVI in vivo 1 Day Protectant, 100 ppm, grape, 24 hour protectant, % control of fungal infection vs untreated plants.
With `COc1ccnc(C(=O)N[C@H]2COC(=O)[C@H](Cc3ccccc3)[C@@H](OC(=O)C(C)C)[C@H](C)OC2=O)c1OC(=O)O[C@@H]1C[C@H](C)CC[C@H]1C(C)C` [Compound 690], the pest or weed control at 100 ppm is less than 25%.
`COc1ccnc(C(=O)N[C@H]2COC(=O)[C@H](Cc3ccccc3)[C@@H](OC(=O)C(C)C)[C@H](C)OC2=O)c1OC(=O)C1CCCC1` [Compound 611]: the pest or weed control at 100 ppm was less than 25%.
Turning to `COc1ccnc(C(=O)N[C@H]2COC(=O)[C@H](Cc3ccccc3)[C@@H](OC(=O)C(C)C)[C@H](C)OC2=O)c1OC(=O)COCc1ccccc1` [Compound 656], the pest or weed control at 100 ppm was less than 25%.
As to `COc1ccnc(C(=O)N[C@H]2COC(=O)[C@H](Cc3ccccc3)[C@@H](OC(=O)C(C)C)[C@H](C)OC2=O)c1OC(=O)OCCBr` [Compound 692], the pest or weed control at 100 ppm is less than 25%.
On to `COc1ccnc(C(=O)N[C@H]2COC(=O)[C@H](Cc3ccccc3)[C@@H](OC(=O)C(C)C)[C@H](C)OC2=O)c1OC(=O)c1ccc(F)c(F)c1` [Compound 639], for which the pest or weed control at 100 ppm is less than 25%.

The same assay, now with this note: Plasmopara, 24 h, read-out: PLASVI in vivo 1 Day Protectant, 100 ppm, grape, 24 hour protectant; control of fungal infection vs untreated plants.
Consider `COc1ccnc(C(=O)Nc2cccc(Oc3ccc(Cl)cc3)c2)c1O` [Compound 440], for which the pest or weed control at 100 ppm is less than 25%.
Consider `COc1ccnc(C(=O)Nc2ccc(Sc3cccc(C(F)(F)F)c3)cc2)c1O` [Compound 445], for which the pest or weed control at 100 ppm is less than 25%.
Regarding `COc1ccnc(C(=O)Nc2cccc(Oc3cccc(C)c3)c2)c1O` [Compound 413], the pest or weed control at 100 ppm was 25 to 74%.
Take `COc1ccnc(C(=O)Nc2cccc(C(=O)Nc3ccc(C(F)(F)F)cc3)c2)c1O` [Compound 450]: the pest or weed control at 100 ppm was less than 25%.
The same measure, in the same setting: under `COC(=O)C(COC(=O)C(C)Cc1ccccc1)NC(=O)c1nccc(OC)c1O` (stereo not drawn) [Compound 345] stands 25 to 74%; under `COc1ccnc(C(=O)NC(COC(=O)CC(C)O[Si](C)(C)C(C)(C)C)C(=O)OC(C)C)c1O` (stereo not drawn) [Compound 354], less than 25%; under `COc1ccnc(C(=O)Nc2ccc(Nc3cccc(C(F)(F)F)c3)cc2)c1O` [Compound 410], less than 25%.
Take `COc1ccnc(C(=O)NC(COC(=O)C(Cc2ccccc2)C(C)OC(=O)C(C)C)C(=O)OC(C)C)c1O` (stereo not drawn) [Compound 355]: the pest or weed control at 100 ppm was in the range of 25 to 74%.
Regarding `COC(=O)C(Cc1ccc(OCc2ccccc2)cc1)NC(=O)c1nccc(OC)c1O` (single isomer, unassigned) [Compound 338], the pest or weed control at 100 ppm was less than 25%.
Take `CO/N=C(/c1ccc(NC(=O)c2nccc(OC)c2O)cc1)c1ccc(C(F)(F)F)cc1` [Compound 409]: the pest or weed control at 100 ppm is less than 25%.
Regarding `COC(=O)C(COC(=O)C(COC(=O)C(C)C)Cc1ccccc1)NC(=O)c1nccc(OC)c1O` (stereo not drawn) [Compound 349], the pest or weed control at 100 ppm was 25 to 74%.
On the same count and under the same terms, next, `COCc1cc(Oc2ccc(C(F)(F)F)cc2)ccc1NC(=O)c1nccc(OC)c1O` [Compound 426]: 25 to 74%; `COc1ccnc(C(=O)Nc2ccc(OCc3cccc(C(F)(F)F)c3)cc2)c1O` [Compound 447]: 25 to 74%; `COc1ccnc(C(=O)Nc2ccc(Oc3cccc(C(F)(F)F)c3)cc2)c1O` [Compound 424]: 25 to 74%.
Take `COc1ccnc(C(=O)Nc2ccc(C(=O)c3cccc(C(F)(F)F)c3)cc2)c1O` [Compound 405]: the pest or weed control at 100 ppm was less than 25%.

The same assay, now with this note: Plasmopara, 24 h, read-out: PLASVI in vivo 1 Day Protectant, grape plants, 100 ppm, 24 hour protectant; control of fungal infection vs untreated plants.
As for `COc1ccnc(C(=O)Nc2ccc(Oc3cc(Oc4ccccc4)ncn3)cc2)c1O` [Compound 468], the pest or weed control at 100 ppm is less than 25%.
As for `COC(=O)C(COC(=O)COCc1ccccc1)NC(=O)c1nccc(OC)c1OC(C)=O` (stereo not drawn) [Compound 585], the pest or weed control at 100 ppm is less than 25%.
Regarding `COc1ccnc(C(=O)NC2CC(C)(C)C(=O)C(C)(C)C2)c1OC(C)=O` [Compound 575], the pest or weed control at 100 ppm is less than 25%.
As for `CC1(C)CC(NC(=O)c2cn(-c3ccccc3)nc2O)CC(C)(C)C1` [Compound 559], the pest or weed control at 100 ppm was less than 25%.
Regarding `COc1ccnc(C(=O)N[C@H]2CO[C@@H](C(C)Cc3ccc(C(C)(C)C)cc3)OC2)c1OC(C)=O` (stereo partly drawn) [Compound 593], the pest or weed control at 100 ppm lay within 25 to 74%.
As for `CC1(C)CC(NC(=O)c2cnccc2O)CC(C)(C)C1` [Compound 502], the pest or weed control at 100 ppm was in the range of 25 to 74%.
In the case of `O=C(NCc1ccccc1)c1ccncc1O` [Compound 506], the pest or weed control at 100 ppm lay in the range of 25 to 74%.
Take `CC(NC(=O)c1nc(Br)ccc1O)c1ccc(Oc2ccccc2)cc1` (stereo not drawn) [Compound 490]: the pest or weed control at 100 ppm was 25 to 74%.
Turning to `COc1ccnc(C(=O)NC(COC(=O)CCc2ccccc2)C(=O)OC(C)COC(=O)C(C)C)c1OC(C)=O` (stereo not drawn) [Compound 590], the pest or weed control at 100 ppm is less than 25%.
For the compound `COc1ccnc(C(=O)Nc2ccc(Oc3cc(C(F)(F)F)nc(C(F)(F)F)c3)cc2)c1O` [Compound 466], the pest or weed control at 100 ppm is less than 25%.
For `CSc1nnc(C(=O)N[C@H]2COC(=O)[C@H](Cc3ccccc3)[C@@H](OC(=O)C(C)C)[C@H](C)OC2=O)c(O)n1` [Compound 547], the pest or weed control at 100 ppm was 25 to 74%.
As for `O=C(Nc1ccc(Oc2ccc(C(F)(F)F)cc2)cc1)c1nc(Br)ccc1O` [Compound 499], the pest or weed control at 100 ppm lay in the range of 25 to 74%.
`CSc1ccnc(C(=O)Nc2ccc(Oc3cccc(C(F)(F)F)c3)cc2)c1O` [Compound 479]: the pest or weed control at 100 ppm is less than 25%.
On to `Cc1cc(C)c(C(=O)NC2CC(C)(C)CC(C)(C)C2)c(O)n1` [Compound 528], for which the pest or weed control at 100 ppm was less than 25%.
